# Like-named read-outs stand apart in the source and are kept apart here. These are yes or no findings as the source states them, for the method shown. For some assays here: In cells and extracts the contact can be indirect. Some entries that bind do so weakly or less than the wild type. For some assays here: Where a sequence is shown, tags or fusion partners need not be part of it.
# Amino acid sequences for entries named in this document (tags omitted).
# UniProt Q9I745: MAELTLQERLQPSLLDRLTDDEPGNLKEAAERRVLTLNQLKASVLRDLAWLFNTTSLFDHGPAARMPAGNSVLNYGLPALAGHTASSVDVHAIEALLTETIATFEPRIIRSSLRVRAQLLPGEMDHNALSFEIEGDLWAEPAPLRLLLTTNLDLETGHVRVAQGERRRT
# T1: TssA1 fused to the adenylate cyclase T25 or T18 subunit (P. aeruginosa) (UniProt Q9I750)
# T1 sequence: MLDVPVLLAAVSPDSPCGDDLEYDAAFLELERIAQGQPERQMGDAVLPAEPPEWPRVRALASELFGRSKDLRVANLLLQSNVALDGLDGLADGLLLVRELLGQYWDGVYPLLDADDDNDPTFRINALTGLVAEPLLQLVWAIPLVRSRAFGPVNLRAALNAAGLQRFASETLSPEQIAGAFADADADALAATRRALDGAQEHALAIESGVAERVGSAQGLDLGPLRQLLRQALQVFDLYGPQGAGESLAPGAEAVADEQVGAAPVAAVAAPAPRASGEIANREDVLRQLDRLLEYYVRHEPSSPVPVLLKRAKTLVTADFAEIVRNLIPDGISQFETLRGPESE
# T2: His6-TssA1 co-produced with TssB1C1 (P. aeruginosa) (UniProt Q9I750)
# T2 sequence: T1 sequence
# B1: His6-TssA1 (natural protein)
# chain: T1 sequence
# B2: TssB1C1 sheath (complex, UniProt Q9I749 1-172; Q9I748 1-498)
# chain 1: MGSTTSSQKFIARNRAPRVQIEYDVELYGAEKKVQLPFVMGVMADLAGKPAEPQAAVADRKFLEIDVDNFDARLKAMKPRVAFNVPNVLTGEGNLSLDITFESMDDFSPAAVARKVDSLNKLLEARTQLANLLTYMDGKTGAEEMIMKAIKDPALLQALASAPKPKDDEPQA
# chain 2: MAELSTENLAQGQTTTEQTSEFASLLLQEFKPKTERAREAVETAVRTLAEHALEQTSLISNDAIKSIESIIAALDAKLTAQVNLIMHHADFQQLESAWRGLHYLVNNTETDEQLKIRVLNISKPELHKTLKKFKGTTWDQSPIFKKLYEEEYGQFGGEPYGCLVGDYYFDQSPPDVELLGEMAKISAAMHAPFISAASPTVMGMGSWQELSNPRDLTKIFTTPEYAGWRSLRESEDSRYIGLTMPRFLARLPYGAKTDPVEEFAFEEETDGADSSKYAWANSAYAMAVNINRSFKLYGWCSRIRGVESGGEVQGLPAHTFPTDDGGVDMKCPTEIAISDRREAELAKNGFMPLLHKKNTDFAAFIGAQSLQKPAEYDDPDATANANLAARLPYLFATCRFAHYLKCIVRDKIGSFKEKDEMQRWLQDWILNYVDGDPAHSTETTKAQHPLAAAEVVVEEVEGNPGYYNSKFFLRPHYQLEGLTVSLRLVSKLPSAKEA
# Tests used:
# [1] = target: T1, TssA1 fused to the adenylate cyclase T25 or T18 subunit (P. aeruginosa); test: two-hybrid; bacterial two-hybrid (BTH), T25 and T18 adenylate cyclase fusions in E. coli DHM1; β-galactosidase activity in Miller units and X-gal LB agar plates
# [2] = target: His6-TssA1(1-245) (P. aeruginosa) (UniProt Q9I750); test: AUC; sedimentation velocity of TssA1(1-245) at 1.6, 1.2 and 0.8 mg/ml, 50,000 rpm, 20 °C, 25 mM Tris-HCl pH 7.5, 200 mM NaCl; c(s) by SEDFIT; both purified
# [3] = target: His6-TssA1(1-245) (P. aeruginosa) (UniProt Q9I750); test: SEC-MALS; His6-TssA1(1-245) on Superdex 200 10/300, room temperature, 25 mM Tris-HCl pH 7.5, 150 mM NaCl; both purified
# [4] = target: His6-TssA1(1-245) (P. aeruginosa) (UniProt Q9I750); test: cross-linking; about 30 μg purified protein, EGS 2 and 5 mM, room temperature, 30 min, 1 or 2 h, 50 mM NaH2PO4 pH 7.5, 150 mM NaCl; 3-12% SDS-PAGE, anti-His6 Western blot; both purified
# [5] = target: T1, TssA1 fused to the adenylate cyclase T25 or T18 subunit (P. aeruginosa); test: two-hybrid; bacterial two-hybrid (BTH), T25 and T18 adenylate cyclase fusions in E. coli DHM1; β-galactosidase activity in Miller units and X-gal LB agar plates; remark: listed apart in the source
# [6] = target: T2, His6-TssA1 co-produced with TssB1C1 (P. aeruginosa); test: pull-down; Ni-NTA co-purification of His6-TssA1 and untagged TssB1C1 co-expressed in E. coli; Western blot with anti-His6 and anti-TssB1
# [7] = target: T2, His6-TssA1 co-produced with TssB1C1 (P. aeruginosa); test: SEC; Ni-NTA eluate of co-expressed His6-TssA1 and TssB1C1 on Superdex 200 10/300, 25 mM Tris-HCl pH 7.5, 150 mM NaCl; SDS-PAGE of the elution fraction; both purified
# [8] = target: T2, His6-TssA1 co-produced with TssB1C1 (P. aeruginosa); test: Ni-NTA nanogold labelling with negative stain electron microscopy; SEC fractions of co-purified His6-TssA1 and TssB1C1 incubated on ice with Ni-NTA nanogold, unbound gold removed by SEC, negative stain EM; both purified
molecule,measurement,setting,value
TssE1 fused to the adenylate cyclase T25 or T18 subunit (from UniProt Q9I745 1-169),binding,[1],no binding
His6-TssA1(1-245) (from UniProt Q9I750 1-245) (domain or fragment),binding,[2],"no binding (tested: 1.6, 1.2 and 0.8 mg/ml)"
same,binding,[3],no binding
same,binding,[4],no binding
B1,binding,[5],binds
B2,binding,[6],binds
same,binding,[7],binds
same,binding,[8],binds

# Source: paper PMC4969574 (The EMBO Journal, 2016)
